Data taken from PubChem BioAssay AID485294 (National Center for Advancing Translational Sciences (NCATS), 2010).
In all, about 370,000 compounds went through this assay and about 150 (0.041%) were called active. Inconclusive means that the source gave no clear call. Such entries were picked first, then a sample of the others. Calls follow the shape of the dose curve; as a rule, active = well fitted inhibition curve with a large enough effect; inconclusive = small, poorly fitted or top-dose-only effect; inactive = flat fitted curve, though single readings scatter. Potencies of inconclusive entries are left out as doubtful fits.

The compounds below were run against Beta-lactamase (Escherichia coli (strain K12)) (UniProt P00811) (assay: qHTS Inhibitors of AmpC Beta-Lactamase (assay with detergent)). Conditions: AmpC hydrolysis of nitrocefin, absorbance 480 nm, 0.01% Triton; series mostly up to 114 µM.
Summary of the method: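 20 mM phosphate pH 7.0 + 0.01% (detergent screen) or 0.0001% Triton X-100; 5.3 nM AmpC reagent; cpd preinc 15 min RT; nitrocefin (800 uM stock) to start; A480 q20 s × 4 min; Activity was normalised to no-enzyme and no-compound control wells.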
Also: nearly all actives have a fitted effect of over 25% in size.
Potency is read from the fitted curve at half-maximal effect; tags tell the direction and shape of the fitted curve.

UniProt P00811, sequence (P00811 whole entry, looked up): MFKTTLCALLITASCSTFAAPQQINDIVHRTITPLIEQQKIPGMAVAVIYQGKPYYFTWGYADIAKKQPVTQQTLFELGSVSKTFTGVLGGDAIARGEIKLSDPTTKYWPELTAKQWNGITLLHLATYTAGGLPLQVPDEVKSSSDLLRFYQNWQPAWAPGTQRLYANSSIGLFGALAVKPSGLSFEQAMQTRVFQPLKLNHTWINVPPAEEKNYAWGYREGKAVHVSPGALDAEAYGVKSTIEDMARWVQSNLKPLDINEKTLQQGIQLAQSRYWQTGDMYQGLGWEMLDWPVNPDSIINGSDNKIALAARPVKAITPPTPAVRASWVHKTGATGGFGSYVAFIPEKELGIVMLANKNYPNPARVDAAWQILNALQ

| SMILES | Potency |
| --- | --- |
| COC(=O)c1ccc(C2/C(=C(\O)c3ccc4c(c3)OCCO4)C(=O)C(=O)N2c2nnc(C)s2)cc1 (stereo not given) | inconclusive [inhibitor, full curve, poor fit] |
| CC(/C=N\NC(=O)c1cc(C)oc1C)=C\c1ccccc1 | inconclusive [inhibitor, full curve, poor fit] |
| CCN(CC(=O)Nc1ccccc1OC)C(=O)/C=C/c1cccs1 | inconclusive [inhibitor, partial curve] |
| Cc1ccc(S(=O)(=O)N2CCN(C(=O)CCc3nc4ccccc4c(=O)[nH]3)CC2)c(C)c1 | inconclusive [inhibitor, full curve, poor fit] |
| COc1ccc(CC(=O)NNC(=O)[C@@H]2CCCC[C@@H]2C(=O)O)cc1 | inactive |
| Cn1cccc1Cc1nnc(SCC(=O)Nc2nccs2)n1CCc1ccccc1 | inconclusive [inhibitor, full curve, poor fit] |
| CNC(=O)C1CCN(S(=O)(=O)c2c(C)noc2/C=C/c2ccc(OC)cc2)CC1 | inconclusive [inhibitor, full curve] |
| Cc1ccccc1-c1nc(CS(=O)CC(=O)NC2CCCCC2)c(C)o1 (stereo not given) | inactive |
| Cc1ccc(NC(=O)C2CCCN2S(=O)(=O)c2ccc3nc(-c4ccccc4)[nH]c3c2)cc1F (stereo not given) | inconclusive [inhibitor, full curve, poor fit] |
| Cc1cc2ccccc2cc1CN1CCOCC1 | inconclusive [inhibitor, full curve, poor fit] |
| CC(=O)Nc1ccc(S(=O)(=O)N(C)CC(=O)OCC(=O)N2CCCCC2)cc1 | inconclusive [inhibitor, partial curve, poor fit] |
| O=C(OC(c1ccccc1)c1nccc2ccccc12)c1cccc([N+](=O)[O-])c1 (stereo not given) | inconclusive [inhibitor, full curve, poor fit] |
| CCCCS(=O)(=O)CC(COc1ccccc1)OC(=O)c1ccccc1 (stereo not given) | inconclusive [inhibitor, full curve] |
| CN(CCc1ccccn1)C1CC(=O)N(c2ccc(Cl)cc2)C1=O (stereo not given) | inactive |
| Cc1ccccc1C(=O)Nc1ccc(C(=O)NNC(=O)CCCOc2ccc(Cl)cc2Cl)cc1 | inconclusive [inhibitor, partial curve] |
| COc1cccc(-c2ccc(NC(=O)C3CCCN(Cc4cnc(C)n4C)C3)cc2)c1 (stereo not given) | inconclusive [inhibitor, full curve, poor fit] |
| CCCCc1nnc(NC(=O)CN(C)S(=O)(=O)c2ccc(C)cc2)s1 | inconclusive [inhibitor, full curve, poor fit] |
| COc1cc(NC(=O)Cc2c(C(=O)O)n(C)c3ccccc23)cc(OC)c1OC | inactive |
| CCOC(=O)N1CCN(c2nc3c(C)cccn3c(=O)c2C=O)CC1 | inactive |
| COC(=O)[C@H](CCSC)NC(=O)NCc1ccccc1F | inconclusive [inhibitor, full curve, poor fit] |

| SMILES | Potency |
| --- | --- |
| CCOc1ccc(C(=O)NCC(=O)OCc2c(F)cccc2Cl)cc1OCC | inconclusive [inhibitor, partial curve, poor fit] |
| COc1ccc([C@@H]2CC(=O)c3c(O)cc(O)cc3O2)cc1O | inconclusive [inhibitor, full curve, poor fit] |
| CCOc1ccc2c(c1)N(C(=O)CN1C(=O)CCC1=O)C(C)(C)C=C2C | inconclusive [inhibitor, full curve] |
| Cc1ccc(S(=O)(=O)NCCC(=O)N2CC(C)OC(C)C2)cc1 (stereo not given) | inconclusive [inhibitor, full curve, poor fit] |
| Cc1c(C(=O)N(Cc2cccs2)C2CCS(=O)(=O)C2)oc2ccccc12 (stereo not given) | inconclusive [inhibitor, full curve] |
| Cc1ccnc(NCc2c(O)ccc3ccccc23)c1 | inconclusive [inhibitor, full curve, poor fit] |
| OCC(Cc1ccccc1)NCc1ccccc1C(F)(F)F (stereo not given) | inconclusive [inhibitor, partial curve] |
| Cn1c(=O)c2c(nc(N3CCOCC3)n2CCSc2ncccn2)n(C)c1=O | inconclusive [inhibitor, full curve] |
| O=c1c[n+]([O-])c2ccccc2n1OCc1c(F)cccc1F | inconclusive [inhibitor, single point] |
| Cc1ccc(S(=O)(=O)N2CCN(S(=O)(=O)c3ccc(C)cc3)C2c2ccccc2)cc1 | inconclusive [inhibitor, partial curve, poor fit] |
| O=C(CCc1nc2ccccc2[nH]1)Nc1ccc2c(c1)OCO2 | inactive |
| O=C(c1ccc(S(=O)(=O)c2ccccc2Cl)c([N+](=O)[O-])c1)N1CCCCCC1 | inconclusive [inhibitor, full curve, poor fit] |
| COc1ccccc1-c1nc2ccccc2nc1-c1ccccc1 | inactive |
| N#Cc1c(N)nc2c(c1-c1ccc(Br)s1)CCCC2 | inactive |
| Cc1cccc(NC(=O)COC(=O)c2ccc(S(=O)(=O)N3CCCC3)cc2)c1 | inconclusive [inhibitor, full curve, poor fit] |
| COC(=O)C1C(O)=C(C=Nc2ccccc2)C(=O)CC1(C)C (stereo not given) | inconclusive [inhibitor, full curve] |
| COc1cc(/C=N/N(C)C)ccc1OC(=O)c1ccco1 | inconclusive [inhibitor, full curve] |
| CC(C)C(NC(=O)C1CCCCC1)C(=O)NC1=NCCS1 (stereo not given) | inconclusive [inhibitor, single point] |
| N/C(CSc1nc(-c2ccccc2)c(-c2ccccc2)o1)=N\O | inconclusive [inhibitor, partial curve] |
| CCc1cc2c(=O)n(-c3ccccc3)cnc2s1 | inconclusive [inhibitor, partial curve, poor fit] |
